Source: PubChem BioAssay AID1508624 (National Center for Advancing Translational Sciences (NCATS), 2021)
Among all 48,000 compounds or so, about 120 (0.25%) were called active. About 4% were inconclusive and are not listed. The call rests on the fitted dose curve; in most records, active means well fitted activation curve with a large enough effect; inconclusive means small, poorly fitted or top-dose-only effect, or another doubt; inactive means no such curve, though single readings can be large or run the other way. Some of the results follow.

Assay: Primary qHTS for Identification of Small Molecule Activators of Huntingtin-Antisense Promoter Activity; further: nearly all actives have a fitted effect of over 55% in size
Conditions: HEK293 HTT-AS promoter firefly luciferase reporter, 24 h; series mostly up to 57.5 µM; activity change, positive = activation: at the top concentration
Method in brief: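 HEK293 Fluc reporter, 2,500 cells/well, 24 h pre-culture; cpds up to 57.5 uM final, 24 h 37 degrees C; Dual-Glo, 10 min RT; normalized vehicle = 0%, zero RLU = -100%.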

SMILES | activity change, positive = activation
CC(=O)Nc1cccc(C(=O)NCc2ccc3c(c2)CCN3C(=O)c2ccc(F)cc2)c1 | inactive: 4.75%
CCN(C(=O)C1CCCN(c2ncnc3c2nc2n3CCCCC2)C1)c1cccc(Cl)c1 (stereo unspecified) | inactive: -37%
Cc1cc(NC(=O)c2ccc(NC(=O)CCS(=O)(=O)c3cccs3)cc2)ccc1Br | inactive: 12.4%
Cc1c(CCNC(=O)C(C)(C)C)sc2nc(-c3ccc(F)cc3)nn12 | inactive: -30.2%
COc1cccc(NS(=O)(=O)c2ccc3[nH]cc(C(=O)N4CCCC4)c(=O)c3c2)c1 | inactive: -5.13%
CC(=O)c1ccc(NC(=O)COCc2cc(-c3ccc(F)cc3)on2)cc1 | inactive: -10.6%
COc1ccccc1NC(=O)C1=C(C)Nc2nc(SCc3ccccc3)nn2C1c1ccncc1 (stereo unspecified) | inactive: -8.03%
COc1ccc(Cl)cc1NC(=O)CCn1c(=O)oc2ccccc21 | inactive: -13%
Cc1ccccc1NC(=O)CSc1ccc(-c2cccs2)nn1 | inactive: -14.2%
O=c1[nH]c(SCc2ccc([N+](=O)[O-])cc2)nc2c1CCCC2 | inactive: -5.17%
COc1ccc(NC(=O)Nc2nnc(N(CC(C)C)CC(C)C)s2)c(OC)c1 | inactive: -20.3%
CCN(C(=O)c1cc2c(s1)-c1ccccc1OC2)c1cccc(C(F)(F)F)c1 | inactive: -31.3%
COc1ccc(NC(=O)c2cc(C3CC3)nc3c2c(C)nn3-c2ccccc2)cc1OC | inactive: -31.9%
O=C(Cn1c(-c2cccs2)cc2ccccc21)NCCCN1CCN(c2ccccc2F)CC1 | inactive: -40.5%
Cc1ccc(NC(=O)c2c(NC(=O)C(F)(F)F)sc3c2CCCCC3)cc1 | inactive: -94.5%
Cc1ccc(CNC(=O)Cn2cccc2C(=O)c2ccccc2C)cc1 | inactive: 22.1%
O=C(CSc1nnc(COc2ccccc2)o1)Nc1cc(C(F)(F)F)ccc1Cl | inactive: 9.62% [at 11.5 µM, percent change from vehicle, -100% = no light]
O=C(Cn1ncc2c3ccccc3n(Cc3ccc(F)cc3)c2c1=O)NCCCN1CCCCC1 | inactive: -12.7%
N#Cc1c[nH]n2c(NC3CCCC3)c(-c3ccc(Cl)cc3)nc12 | inactive: -7.59%
Cc1ccccc1C(C(=O)NC1CCCCC1)N(C(=O)CNc1ccc(C#N)cc1)c1cccc(F)c1 (stereo unspecified) | inactive: 0.442%
CCc1ccc(NC(=O)C(=O)NCCc2sc3nc(-c4ccc(OC)cc4)nn3c2C)cc1 | inactive: 5.75%
Cc1ccc(CNc2nc3ccc(C)cc3n3nnnc23)cc1 | inactive: 14.6%
Cc1ccc(CCNC(=O)c2c(C)nn(-c3ccc(F)cc3)c2-n2cccc2)cc1 | inactive: -28.6%
O=C(CCS(=O)(=O)c1cccc2nonc12)Nc1ccc(Br)cc1 | inactive: -4.44%

SMILES | activity change, positive = activation
CC1=C(C(=O)Nc2ccccc2)C(c2ccc(O)cc2)n2nc(SCc3ccccc3)nc2N1 (stereo unspecified) | inactive: -6.62%
CCOc1ccccc1NC(=O)N1CCC2(CC1)Oc1ccccc1C(=O)N2Cc1ccccc1F | inactive: -26.2%
COc1ccc2c(c1)CCc1sc(NC(=O)c3ccc(Cl)cc3)nc1-2 | inactive: -25.8%
CCC1=Nc2cc(C(=O)NC(C)c3ccccc3)ccc2Sc2ccc(Cl)cc21 (stereo unspecified) | inactive: -17.9%
COCCCNC(=O)CN1C(=O)COc2ccc(S(=O)(=O)N3CCCCCC3)cc21 | inactive: -2.8%
COc1ccc(-n2c(=O)c3ccccc3n(CC(=O)NCCc3ccccc3)c2=O)c(OC)c1 | inactive: -5.66%
Cc1ccc(NC(=O)CCc2c(C)nc3c(-c4ccccc4)c(C)nn3c2C)c(C)c1 | inactive: -10.7%
CC1CCN(S(=O)(=O)c2cn(CC(=O)Nc3ccc(F)c(Cl)c3)c(=O)c3ccccc23)CC1 | inactive: -33.5%
Cc1cccc(-n2cc(-c3ccccc3)c3c(NC(C)C)ncnc32)c1 | inactive: -20.1%
COC(=O)c1ccccc1NC(=O)CN(c1ccccc1OC)S(C)(=O)=O | inactive: -17.4%
Cc1ccc(NC(=O)CSc2nc(-c3ccc(F)cc3)nc3c2Cc2c(CO)cnc(C)c2O3)cc1C | inactive: -11.3%
CN(Cc1ccccc1)C(=O)CCS(=O)(=O)c1cc(Br)cc2c1N(C(=O)C1CC1)CC2 | inactive: -15%
O=C(CSc1nccn1-c1cccc(Cl)c1)Nc1cccc(C(F)(F)F)c1 | inactive: -16.9%
CCCN1C(=O)C(O)(CC(=O)c2ccc(CC)cc2)c2cc(Br)ccc21 (stereo unspecified) | inactive: -24.4%
Cc1cccc(OCC(=O)Nc2nonc2-c2ccc(Br)cc2)c1C | inactive: -18.2%
CCOc1ccc(CC(=O)Nc2ccc3c(c2)N(C)C(=O)c2ccccc2S3)cc1OCC | inactive: -30%
O=C(COc1ccc(Cl)cc1)Nc1sc2c(c1C(=O)Nc1cccc(Cl)c1)CCCC2 | inactive: -9.99%
Cc1cccc(C)c1-n1ncc(C(=O)NCc2ccc3c(c2)OCO3)c1C1CCN(C(=O)OC(C)(C)C)CC1 | inactive: 0%
CCc1ccc(OCC(=O)N(Cc2ccc(C)cc2)Cc2ccco2)cc1 | inactive: -14.3%
O=C(Nc1ccc(OC(F)(F)F)cc1)C1CCCN(S(=O)(=O)c2cccc3nonc23)C1 (stereo unspecified) | inactive: -10.4%
CC(=O)N1c2ccc(S(=O)(=O)NCC3CCC(C(=O)Nc4ccccc4C)CC3)cc2CC1C (stereo unspecified) | inactive: -29.4%
CCCCN(C)CCCNC(=O)c1cc(=O)[nH]c2ccc(S(=O)(=O)N3CCCCC3)cc12 | inactive: -10.7%
O=C(C1CCC1)N1CCc2cc(S(=O)(=O)N3CCN(c4ccccc4)CC3)ccc21 | inactive: -26.2%
CCOc1ccc(-n2cc(C(=O)Nc3ccccc3OCC)c3cc(OC)c(OC)cc3c2=O)cc1 | inactive: -3.94%

SMILES | activity change, positive = activation
COc1cc2ccccc2cc1C(=O)N1CCN(c2nc3c(C)cc(C)cc3s2)CC1 | inactive: -21.2%
CCC(C(=O)OCCN1CCOC(c2ccccc2)C1C)c1ccccc1 (stereo unspecified) | inactive: -19.6%
CCC(C)NC(=O)Cn1c(=O)n(CC2CCC(C(=O)NC)CC2)c(=O)c2sccc21 (stereo unspecified) | inactive: -10.4%
Cc1cccc(NC(=O)C2CCN(S(=O)(=O)c3cccc4nsnc34)CC2)c1 | inactive: -26.5%
CC1CCN(C(=O)Cn2cc(SCc3cccc(F)c3)c3ccccc32)CC1 | inactive: -13%
CCOC(=O)c1c(NC(=O)CS(=O)(=O)c2ccc(C)cc2)sc2c1CCC(C)C2 (stereo unspecified) | inactive: -15.3%
CCc1ccccc1NC(=O)N1CCN(c2nnc(C)c3c(C)n(-c4ccccc4)nc23)CC1 | inactive: -3.97%
Cc1ccc2nc(-c3ccccc3O)c(Nc3ccccc3C)n2c1 | inactive: 3.03%
O=C(COc1ccccc1F)Nc1ccccc1OCc1cc(=O)n2ccccc2n1 | inactive: 1.27%
CN1C(CCl)Nc2cc(Cl)c(S(N)(=O)=O)cc2S1(=O)=O (stereo unspecified) | inactive: -12.7%
CC1CCN(C(=O)Cn2cc(SCc3ccccc3)c3ccccc32)CC1 | inactive: -9.46%
CC(C)c1ccc(NC(=O)c2ccc(F)c(S(=O)(=O)N3CCCC3)c2)cc1 | inactive: -20.1%
CCCc1nnc(N2C(=O)c3oc4ccc(F)cc4c(=O)c3C2c2ccc(C(=O)OC)cc2)s1 (stereo unspecified) | inactive: -1%
COc1ccccc1OCC(=O)Nc1nnc2n1CCS2 | inactive: 4.62%
CN(CC(=O)Nc1cccc(Cl)c1)S(=O)(=O)c1ccc2[nH]c3c(c2c1)CCCC3 | inactive: -17.5%
COc1ccc2c(c1)cc(CNc1ccc(OC)c(OC)c1)c(=O)n2CC(=O)Nc1ccc(F)cc1 | inactive: -11.4%
Cc1c(C(=O)Nc2ccc(F)c(F)c2)oc2ccc(S(=O)(=O)N3CCCCC3)cc12 | inactive: -11.9%
Cc1cn([C@H]2C=C[C@@H](CO)O2)c(=O)[nH]c1=O | inactive
O=S(=O)(NCC(c1ccco1)S(=O)(=O)c1ccccc1)c1ccccc1 (stereo unspecified) | inactive: -2.62%
COc1ccc(N2CCN(C(=O)CCc3c(C)nc4c(-c5ccccc5)c(C)nn4c3C)CC2)cc1 | inactive: -32%
COc1ccc(CNC(=O)Cn2c(=O)oc3cc(S(=O)(=O)N4CCCCCC4)ccc32)cc1 | inactive: -24.7%
COc1ccccc1CNC(=O)CCCCn1c(=O)c2ccccc2n(Cc2c(C)cc(C)cc2C)c1=O | inactive: -13.6%
COc1ccc(CCNC(=O)c2ccc3c(c2)N(Cc2ccc(C)cc2)CCS3)cc1OC | inactive: -31.1%
CC1=C(C(N)=O)C(c2ccc(C(C)C)cc2)n2nc(SCc3ccccc3)nc2N1 (stereo unspecified) | inactive: -11.8%

SMILES | activity change, positive = activation
Cc1cc(C)n2nc(SCC(=O)Nc3cc(Cl)ccc3C)nc2n1 | inactive: -10%
CCOc1ccc(S(=O)(=O)N(CC(=O)Nc2cccnc2)c2ccccc2)cc1 | inactive: -30.5%
COc1ccc(CNC(=O)CCc2cn(Cc3cc(C)ccc3C)c3ccccc23)cc1OC | inactive: -24%
O=c1cc(-c2ccccc2)nc(SCc2nc(-c3ccc(C(F)(F)F)cc3)no2)[nH]1 | inactive: 0.459%
CCc1cccc(N(C)C(N)=Nc2cccc3ccccc23)c1 | inactive: -21.1%
CC(C)(C)c1ccc(-c2nc3cc(NC(=O)c4cc5ccccc5o4)ccc3o2)cc1 | inactive: -24.2%
COc1ccc(NC(=O)NC2COc3ccccc3C2)c(OC)c1 (stereo unspecified) | inactive: -4.43%
CC(C)c1ccc(NC(=O)C2CCN(S(=O)(=O)c3cccc4nsnc34)CC2)cc1 | inactive: -14.7%
O=C(Cn1ccn(-c2cccc(Cl)c2)c(=O)c1=O)NCCc1ccccc1 | inactive: -6.46%
CC(=O)NS(=O)(=O)c1ccc(N)cc1 | inactive: 1.63%
Cc1c(C(=O)Nc2nc(-c3ccc(F)cc3)ns2)oc2ccc(Br)cc12 | inactive: -5.04%
Cc1cc(=O)[nH]c2nnc(SCc3ccc(Cl)c(Cl)c3)n12 | inactive: -1.42%
COc1cccc(NC(=O)CSc2cc(=O)n(C)c3ccc(Cl)cc23)c1 | inactive: -29.1%
CCCCN(C)CCCNC(=O)CN1C(=O)COc2ccc(S(=O)(=O)N3CCC(C)CC3)cc21 | inactive: -6.06%
CCOC(=O)N1CCc2c(sc(NCc3sccc3C)c2C(=O)Nc2cc(OC)ccc2OC)C1 | inactive: -15.2%
CCCCNC(=O)C1CCN(C(=O)N2CC(C)Oc3ccc(Cl)cc32)CC1 (stereo unspecified) | inactive: -13.4%
CCOc1ccccc1-n1c(C)nc2cc(C(=O)O)ccc21 | inactive: -7.14%
Cc1cccc(C(=O)N2CCc3cc(CNC(=O)c4ccnn4C)ccc32)c1 | inactive: -34.4%
CCOc1ccccc1NC(=O)Cc1coc2c(C)c(C)ccc12 | inactive: -26.2%
CCOc1ccccc1NC(=O)CN1C(=O)COc2ccc(S(=O)(=O)N3CCCCCC3)cc21 | inactive: -27.3%
N#C/C(=C\c1ccc(F)cc1)C(=O)NCC1CCCO1 (stereo unspecified) | inactive: 1.45%
Cn1cnc(S(=O)(=O)N2CCCC(C(=O)NCc3ccccc3Cl)C2)c1 (stereo unspecified) | inactive: -9.94%
Cc1ccc(CCNC(=O)C(CC(C)C)NS(=O)(=O)c2ccc3c(c2)oc(=O)n3C)cc1 (stereo unspecified) | inactive: -5.89%
CCn1c(=NC(=O)c2ccc(S(=O)(=O)N3CCCCC3)cc2)sc2cccc(OC)c21 | inactive: -40.7%
